± gives the standard deviation of the averaged measurements. The list shows a part of the results.

The subject of this assay is PfAP2-I AP2 domain 3 (GST-tagged). Kind of assay: gcPBM binding intensity (ln(normalized median fluorescence intensity)); higher = stronger DNA binding. An outline of the steps:
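An Agilent 4 × 180k array of primer-extended double-stranded 36-bp intergenic genomic probes, with negative controls, was incubated for 1 h with GST-tagged P. falciparum DNA-binding domains expressed in E. coli. Alexa488 anti-GST antibody detected bound protein, scanned at 488 nm. Binding intensity is the highest Masliner-normalised natural-log median intensity across replicate spots of either probe orientation.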
Consider CAAAAAAAAAAACGGGTGCTAAATTTTATTTTTTAT, for which the “gcPBM binding intensity (ln)” value was determined as 9.26 ± 0.4. Under “AAAAAAAAAATATATATATATATATATATATATATA [GTGCAC_negctrl_site467]” stands 9.37 ± 0.23; under “TATCATGGTTCGGATTGTACATATATGAATTTTTTT [XGTACX_site7478]”, 7.67 ± 0.54; under “AAAAAAGAAATAAGGATACACACTATTGATAAAAGT [CACACA_site272]”, 7.97 ± 0.66. On to “CCAGTGTGCACCTTGCGTACATATTAAATTAATTAA [XGTACX_site3729]”, for which the “gcPBM binding intensity (ln)” value amounted to 10.6 ± 0.76.

Turning to “TTGTTTCAAAATTAAACACACACAAAAAAAAAAAAA [CACACA_site8856]”, the “gcPBM binding intensity (ln)” value was 7.99 ± 0.64.

Take CTTATAATATTACGGGTGCTATAAATACATTATATT: the “gcPBM binding intensity (ln)” value worked out at 9.82 ± 0.23.

As to “TAAATCAAAAACAACAAGTCATATTAAAGATGGTAT [CACACA_negctrl_site1321]”, the “gcPBM binding intensity (ln)” value stood at 7.68 ± 0.78. Under “AAGGAAAACAGTAGGTGTACCAAACGTCCTAGGAAC [XGTACX_site3659]” stands 7.71 ± 0.94; under “TATATTTATATCATCACACATTTTTTTTTTCTTTTT [CACACA_site6150]”, 7.34 ± 0.57; under “GGATATATAAGATACACACACAAATTAAATATAAAA [CACACA_site7333]”, 7.78 ± 0.8. Under “TAATATATAAATATATGTACATAATTAATAGGATAT [XGTACX_site237]” stands 8.05 ± 0.37; under “TATTCCTAATTTAAAAGTACATATATATATATATAT [XGTACX_site3008]”, 9.28 ± 0.26; under “TTTTCTTTTTTCTTTTTAACTCTTACATAATAGGTG [CACACA_negctrl_site642]”, 7.62 ± 0.63. The same measure for “AAAAAAAAAAAAATTACACACATACCTATAAGAATA [CACACA_site7097]”: 7.63 ± 0.4; for “AATATATGTTAAAATGGTACACAATTATTATATATT [XGTACX_site6407]”: 7.84 ± 0.23. On to “AAAAAAAAAAAAAAGAGTACTTTTTTCACATTCATC [XGTACX_site8795]”, for which the “gcPBM binding intensity (ln)” value is 8.31 ± 0.51. Under “TAAAATGAATAAAATTGTACTTAATAATATTTTAAA [XGTACX_site5532]” stands 7.33 ± 0.19. “TTTTTTTTTCTGTATACACACAAAATTTATTTTTTA [CACACA_site2873]”: the “gcPBM binding intensity (ln)” value is 7.92 ± 0.64. The same measure for “TTAATAACGTAATGTAAATGTTTCATACCCTTTTTT [CACACA_negctrl_site988]”: 7.47 ± 0.61; for “ATATATATGTATGTATATATATATATATATGTTTGA [CACACA_negctrl_site107]”: 8.11 ± 0.49; for “ATAAAATAAAAACATGCACACTTTATTTTTTTTAAG [CACACA_site5545]”: 8.7 ± 0.51.

Take “AAAGAAGGGGGGGGAAAAAAAAATAAAAGAGGAAAA [XGTACX_negctrl_site92]”: the “gcPBM binding intensity (ln)” value worked out at 9.63 ± 0.45. As to “AAAATGTATATTGGCGCATGTAAACAAATACTATAC [TGCATGCA_site385]”, the “gcPBM binding intensity (ln)” value turned out to be 8.1 ± 0.81.

On to “TCAAAATGTGACATAAAAGAAAAAAAAAAAAAAAAA [CACACA_negctrl_site1092]”, for which the “gcPBM binding intensity (ln)” value stood at 8.12 ± 0.69.

On to “GATAATAATAAGTGTACACATATATTTAGAAGAGTA [CACACA_site4245]”, for which the “gcPBM binding intensity (ln)” value was found to be 8.3.

Turning to “TGGGGTATTAAAAAAACACACAAAAAAAATATAAAG [CACACA_site1915]”, the “gcPBM binding intensity (ln)” value was found to be 8.06 ± 0.42. Under “TCCTCATTTTATCATACACACTTGTTTATATGTGTG [CACACA_site6548]” stands 7.71 ± 0.42; under “TATATATATATAATTTGTACACACAAATATGCATAT [XGTACX_site7297]”, 9.26 ± 0.35; under “ATATATAATAATTGTAGTACAATTAATAAATAAAAT [XGTACX_site3840]”, 7.91 ± 0.33. For “ATACGATTGCAGTCAAAAAGGAAAATATAAAAAAAG [XGTACX_negctrl_site124]”, the “gcPBM binding intensity (ln)” value amounted to 7.93 ± 0.67. Under “AATATTTATAAATTTACACACACACCCGTGAACATA [CACACA_site1910]” stands 7.99 ± 0.71; under “TTATCATTTTAAATCACACACATATATAAATATGTA [CACACA_site7359]”, 7.8 ± 0.25; under “AATGATTTTGATTAACGTACGTACAAATATATATAT [XGTACX_site6604]”, 8.87 ± 0.28.

As to “TATATATTATATAAATAAATAAATATATATATTTAT [TGCATGCA_negctrl_site270]”, the “gcPBM binding intensity (ln)” value was found to be 7.28 ± 0.4. The same measure for “TTATTAAATATAAATATGTATCTTTTATGTTATATT [CACACA_negctrl_site306]”: 7.29 ± 0.44. Under “AGACCTATGATATATACACACATATAAATAAATATA [CACACA_site6725]” stands 7.74 ± 0.44.

Take “AATGTTAAACTATGATGTACGGTTAAAAATATAATT [XGTACX_site893]”: the “gcPBM binding intensity (ln)” value stood at 7.92 ± 0.64. In the case of “TATTTTACGACATACCAAAAAAAAAAAAAAAAAATA [CACACA_negctrl_site1254]”, the “gcPBM binding intensity (ln)” value came to 7.39 ± 0.42. Under “AAAAAAAAAAGACACACACACATAGACCTCCAATAG [CACACA_site7646]” stands 8.03 ± 0.45. The same measure for “TAAATCCGCAGGCACACACACATATTAATAAAAAAA [CACACA_site3991]”: 7.96 ± 0.59; for “TGATATTATAGATATACACACATGTATGTATTTATA [CACACA_site6758]”: 7.39 ± 0.39; for “AAATTTAGTAAAAAATGTACGTAAAATGTAAAATAT [XGTACX_site1314]”: 8.11 ± 0.61.

“AAGGTAAACGGACACACACACATACAAAAAAAAAAA [CACACA_site5961]”: the “gcPBM binding intensity (ln)” value is 8.25 ± 0.64. Under “ATACTAACATTTTTTTGTACATATAACTATAAAATA [XGTACX_site1033]” stands 8.09 ± 0.47; under “TATAAAAAAATAAAAGGAATATACTTGCAAAGGGTA [CACACA_negctrl_site1438]”, 8.28 ± 0.59; under “AACAATATATTGATATTATTTTAAGTGATTATATAT [XGTACX_negctrl_site205]”, 7.45 ± 0.63. The same measure for “AATAATAAAAAAAGTGCACACACATAATATATATAT [CACACA_site9100]”: 9.95 ± 0.014.

In the case of “TTTTTTTTTGTTATGTTGCACTTTGCCATATTATTA [GTGCAC_site9844]”, the “gcPBM binding intensity (ln)” value was 9.6 ± 0.19. Turning to “TTTCAAATGATTAAGTGTACATGTTTGCTTGCTCTT [XGTACX_site4697]”, the “gcPBM binding intensity (ln)” value was 7.49 ± 0.61. Under “AATTTTATTACTTTTACACACCTATATATCATTCAT [CACACA_site7525]” stands 8.09 ± 0.59; under “ACCTTAAATAATACATGTACAAAAAAATTTATAATA [XGTACX_site1043]”, 8.21 ± 0.13; under “TAGGGATTATACCACACACACATACACATAAATATA [CACACA_site3178]”, 7.86 ± 0.32. The same measure for “AAGAATAAGGAAAAATGTACAGAATGCACATATGAA [XGTACX_site4705]”: 8.37 ± 0.67. Under “ATGTATATATATATATGTACATATTTTTTATATGTA [XGTACX_site441]” stands 7.71 ± 0.42. Consider “TTCTTTTTTTAAAGAAGTACTATATTTTAAATTATA [XGTACX_site5059]”, for which the “gcPBM binding intensity (ln)” value worked out at 7.66 ± 0.11.

These data come from the supplement of paper PMC11417369.
